{"source": "the BET-seq Pho4 binding data (Le et al. 2018)", "note": "The other results are listed elsewhere or left out. The energies were worked out here from pooled read counts, against the library average; single values are noisy."}
{"biological_target": "T1, Pho4 (S. cerevisiae) (UniProt P07270)", "T1 sequence": "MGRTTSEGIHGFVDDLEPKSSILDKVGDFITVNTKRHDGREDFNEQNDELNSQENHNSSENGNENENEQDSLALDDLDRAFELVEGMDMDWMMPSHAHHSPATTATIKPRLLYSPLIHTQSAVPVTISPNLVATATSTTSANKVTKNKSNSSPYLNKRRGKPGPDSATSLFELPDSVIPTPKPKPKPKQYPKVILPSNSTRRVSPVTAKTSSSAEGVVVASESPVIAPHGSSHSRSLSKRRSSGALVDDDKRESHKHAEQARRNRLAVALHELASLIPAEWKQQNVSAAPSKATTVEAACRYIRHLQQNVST", "test": "relative binding free energy (BET-seq); higher = weaker binding", "conditions": "reference: library average", "units": {"relative binding free energy": "kcal/mol"}}
{"sequence": "GTTCACACGTGTAGGT", "relative binding free energy": 0.17}
{"sequence": "TAAGGCACGTGATATG", "relative binding free energy": -0.01}
{"sequence": "AGAGTCACGTGTTGGA", "relative binding free energy": 0.04}
{"sequence": "AGCGGCACGTGAGCGG", "relative binding free energy": -0.14}
{"sequence": "TGGGGCACGTGGGTTT", "relative binding free energy": -0.19}
{"sequence": "GGTGGCACGTGTGGGG", "relative binding free energy": 0}
{"sequence": "GGGTTCACGTGCTCTT", "relative binding free energy": 0.29}
{"sequence": "GAAGGCACGTGTTGAG", "relative binding free energy": 0.03}
{"sequence": "AGAGGCACGTGTAGCG", "relative binding free energy": -0.04}
{"sequence": "GAGGTCACGTGAGTTG", "relative binding free energy": 0.28}
{"sequence": "GCGTGCACGTGTGGTA", "relative binding free energy": -0.01}
{"sequence": "TTTTTCACGTGAGATC", "relative binding free energy": 0.38}
{"sequence": "TAGCGCACGTGTCGGT", "relative binding free energy": -0.04}
{"sequence": "GTTAGCACGTGATTTG", "relative binding free energy": 0.17}
{"sequence": "GTCCGCACGTGGGGCG", "relative binding free energy": -0.21}
{"sequence": "GTCATCACGTGAGGGT", "relative binding free energy": 0.38}
{"sequence": "GTCTTCACGTGTGTTA", "relative binding free energy": 0.24}
{"sequence": "GGTAGCACGTGTATAT", "relative binding free energy": 0}
{"sequence": "AGTCACACGTGTGGAT", "relative binding free energy": 0.07}
{"sequence": "GTTGGCACGTGTTTGA", "relative binding free energy": 0}
{"sequence": "GGAAGCACGTGTTATG", "relative binding free energy": -0.27}
{"sequence": "TGCAACACGTGTTTGT", "relative binding free energy": -0.04}
{"sequence": "CGGATCACGTGAGGGA", "relative binding free energy": 0.26}
{"sequence": "TTTCTCACGTGACGTG", "relative binding free energy": 0.33}
{"sequence": "CGAATCACGTGTGAGT", "relative binding free energy": 0.23}
{"sequence": "AGCGACACGTGGGCGG", "relative binding free energy": -0.28}
{"sequence": "GGTTACACGTGGTAGG", "relative binding free energy": 0.16}
{"sequence": "GTGTCCACGTGTATTG", "relative binding free energy": 0.02}
{"sequence": "TGTGTCACGTGGAGTT", "relative binding free energy": 0.19}
{"sequence": "TTGACCACGTGGTAGT", "relative binding free energy": -0.24}
{"sequence": "CAGGTCACGTGGGGAA", "relative binding free energy": 0.06}
{"sequence": "TGTATCACGTGGTTTA", "relative binding free energy": 0.05}
{"sequence": "AGGATCACGTGTATAT", "relative binding free energy": 0.18}
{"sequence": "TGTCGCACGTGGAATT", "relative binding free energy": 0.14}
{"sequence": "GCTGACACGTGCGGGG", "relative binding free energy": -0.1}
{"sequence": "AGGGACACGTGTAGCT", "relative binding free energy": 0.07}
{"sequence": "TCGTACACGTGAATGG", "relative binding free energy": 0.19}
{"sequence": "GGTTTCACGTGGCGCA", "relative binding free energy": 0.18}
{"sequence": "TTGGTCACGTGGTTAT", "relative binding free energy": 0.13}
{"sequence": "TTGAACACGTGAAGTT", "relative binding free energy": 0.47}
{"sequence": "TGGTTCACGTGAAGCA", "relative binding free energy": 0.39}
{"sequence": "GTTGCCACGTGGTGAG", "relative binding free energy": 0.01}
{"sequence": "ATGGGCACGTGGAACG", "relative binding free energy": -0.1}
{"sequence": "TGTTACACGTGGGACG", "relative binding free energy": -0.04}
{"sequence": "GGTGACACGTGGGCAG", "relative binding free energy": -0.13}
{"sequence": "GTTTCCACGTGGAGTG", "relative binding free energy": 0.14}
{"sequence": "ATTGGCACGTGTGTGC", "relative binding free energy": -0.17}
{"sequence": "GATCGCACGTGGGTTG", "relative binding free energy": -0.12}
{"sequence": "GGAGGCACGTGTTGTG", "relative binding free energy": -0.02}
{"sequence": "TTGAACACGTGTTGCA", "relative binding free energy": -0.03}
{"sequence": "AGTAACACGTGAAGGT", "relative binding free energy": 0.1}
{"sequence": "GGTTTCACGTGGTTAG", "relative binding free energy": 0.28}
{"sequence": "TTAGGCACGTGTGCAT", "relative binding free energy": -0.05}
{"sequence": "TTTGTCACGTGAGTTT", "relative binding free energy": 0.3}
{"sequence": "GTTTACACGTGTTAAA", "relative binding free energy": 0.22}
{"sequence": "TAAAGCACGTGGGGGG", "relative binding free energy": -0.18}
{"sequence": "TTTCCCACGTGATGGT", "relative binding free energy": 0.28}
{"sequence": "TCGTTCACGTGCTAGT", "relative binding free energy": 0.27}
{"sequence": "TCGTACACGTGTTGGC", "relative binding free energy": 0.26}
{"sequence": "TATTACACGTGTGGAG", "relative binding free energy": 0.17}
{"sequence": "GGTTGCACGTGTCCGG", "relative binding free energy": 0.12}
{"sequence": "TATGCCACGTGTAGGT", "relative binding free energy": -0.15}
{"sequence": "AAGAGCACGTGGCATG", "relative binding free energy": -0.14}
{"sequence": "ATGTGCACGTGGCGGT", "relative binding free energy": -0.12}
{"sequence": "GGGTCCACGTGATGGG", "relative binding free energy": 0.16}
{"sequence": "AGTGGCACGTGGTCGT", "relative binding free energy": -0.12}
{"sequence": "GGTCACACGTGGTATG", "relative binding free energy": -0.02}
{"sequence": "TTTAGCACGTGGTTAA", "relative binding free energy": -0.18}
{"sequence": "GATTTCACGTGTAGCT", "relative binding free energy": 0.25}
{"sequence": "TTTCGCACGTGTATAG", "relative binding free energy": -0.16}
{"sequence": "GAGGGCACGTGTAATA", "relative binding free energy": 0.05}
{"sequence": "GGTGGCACGTGAGGGA", "relative binding free energy": 0.2}
{"sequence": "TGTGACACGTGCGTTG", "relative binding free energy": -0.06}
{"sequence": "ATAGACACGTGATGTG", "relative binding free energy": -0.02}
{"sequence": "AGGGGCACGTGACGCT", "relative binding free energy": -0.01}
{"sequence": "TGTTCCACGTGAGTGT", "relative binding free energy": 0.23}
{"sequence": "AAGGCCACGTGGTAGG", "relative binding free energy": -0.11}
{"sequence": "GGAGTCACGTGCGGGC", "relative binding free energy": 0.03}
{"sequence": "TTGTACACGTGTTGTG", "relative binding free energy": 0.04}
{"sequence": "GAGATCACGTGTGGTA", "relative binding free energy": 0.22}
{"sequence": "TAATTCACGTGGATAG", "relative binding free energy": 0.24}
{"sequence": "GGTTACACGTGAGGGG", "relative binding free energy": 0.41}
{"sequence": "GGAATCACGTGGAGGA", "relative binding free energy": 0.15}
{"sequence": "CGTTGCACGTGATGGC", "relative binding free energy": 0.03}
{"sequence": "GATGGCACGTGGTGCT", "relative binding free energy": -0.09}
{"sequence": "GAATCCACGTGGTGTG", "relative binding free energy": 0}
{"sequence": "AGGGCCACGTGGGAGA", "relative binding free energy": -0.14}
{"sequence": "GATGGCACGTGCGCGT", "relative binding free energy": -0.23}
{"sequence": "TGCTTCACGTGATGTT", "relative binding free energy": 0.38}
{"sequence": "TGTCGCACGTGTGTCG", "relative binding free energy": -0.09}
{"sequence": "GGGCGCACGTGGGTCG", "relative binding free energy": -0.23}
{"sequence": "AATCGCACGTGGATGT", "relative binding free energy": -0.05}
{"sequence": "TAAGGCACGTGATTTA", "relative binding free energy": -0.02}
{"sequence": "CGATGCACGTGGGATT", "relative binding free energy": -0.1}
{"sequence": "ACTTACACGTGGTGTT", "relative binding free energy": -0.01}
{"sequence": "TTAGACACGTGGGGTG", "relative binding free energy": -0.15}
{"sequence": "TATGTCACGTGGAGGA", "relative binding free energy": 0.08}
{"sequence": "GTTTGCACGTGGGTCT", "relative binding free energy": -0.04}
{"sequence": "TCCAGCACGTGTGGGG", "relative binding free energy": 0.03}
{"sequence": "TATGTCACGTGTATGC", "relative binding free energy": 0.13}
{"sequence": "GGAGCCACGTGTGTGC", "relative binding free energy": 0.17}
{"sequence": "TCGGTCACGTGGAATG", "relative binding free energy": 0.17}
{"sequence": "TGGGACACGTGCGGCG", "relative binding free energy": -0.05}
{"sequence": "GTTCACACGTGTTGGT", "relative binding free energy": 0.35}
{"sequence": "AGCTTCACGTGTTGGT", "relative binding free energy": 0.23}
{"sequence": "GGCGCCACGTGGTAGT", "relative binding free energy": -0.13}
{"sequence": "ACTGGCACGTGGGGTT", "relative binding free energy": -0.24}
{"sequence": "GCTTGCACGTGATGTT", "relative binding free energy": 0.24}
{"sequence": "TAGTTCACGTGCGCTT", "relative binding free energy": 0.2}
{"sequence": "AGTTACACGTGGGTGG", "relative binding free energy": -0.02}
{"sequence": "AATAACACGTGGGTGT", "relative binding free energy": -0.22}
{"sequence": "TTAAACACGTGTAGGC", "relative binding free energy": 0.03}
{"sequence": "ATTGACACGTGGCGGG", "relative binding free energy": -0.01}
{"sequence": "CGGGGCACGTGCCTGT", "relative binding free energy": -0.23}
{"sequence": "GTCGTCACGTGTCTGG", "relative binding free energy": 0.1}
